The record followed here is the RNAGym collection of RNA variant scans (doi:10.7554/elife.90254).

Read counts are not given, so values of variants with three or more changes are uncertain.

Sequences and labels used below:
B1: OR4K15 (parent)
chain: GUUAACGGUCAUAGGCCAUGGAAACUAGGAGCACCAUUUCGCUGCCAGUGAAGAAAUGAACAAAGAAAAUCUGGGCCAGGCAGGCAUCAAAAGAAAUAGUCUUGCGCUCAACCAGAAAGUCUGUAAUCAUUUUAAGGGUA

In this data set the parent is B1. Briefly: self-cleavage, relative activity (ratio to wild type); higher = more cleavage; in vitro, sequencing; the parent is a self-cleaving ribozyme.
For the variant A18G A23G A60G A96G A114U, the self-cleavage stood at 0.06.
For A18G A33G A64C A89G U122A the value was 0.46; for G14A A64G A69G, 0.6.
For the variant G14A A63G A66G A82G A92G A129U, the self-cleavage was found to be 0.21.
As to C16G G48U A82U C112U, the self-cleavage was found to be 0.03.
As to A18G A27U U49C G79C A118G U122C U131C, the self-cleavage came to 0.03.
Regarding A13G A33G U43A A82G A134G, the self-cleavage is 0.27.
As for A18G A23G A98G C128A, the self-cleavage was 0.3.
To A13G A27G A82U U100A belongs 0.12; to A18C A24G A55G A110G, 0.12; to A18G A51U A96G, 0.78.
To A18G G41A U43C A68G A94G U102C belongs 1.98; to A13G U43C U70C A110U, 0.6.
To A18G A23G U38C belongs 1.54.
Regarding U12G A89G U130C U131C, the self-cleavage is 0.97.
For A13G A96G U108C the value was 0.03; for G15A A30G A47C A89G U102C A134C, 1.6.
To A13U G29A U37C A78G G83A U87C C88U U131C belongs 0.14.
As for G15U A23G U70C, the self-cleavage was determined as 0.86.
For G14A A23G A52U U72C A89U A114G the value was 1.3.
Consider A13G A23G A30G A55G U87C, for which the self-cleavage was 0.78.
With A13G A114G A118G U130C U131C, the self-cleavage worked out at 0.08.
To A18G A24U U72C A117G U120C belongs 0.2; to A18G A82G U87A A114G A117G, 0.38.
Take A18G A63G U100C U102A: the self-cleavage turned out to be 1.96.
To A13G U108C A114U A117U A126G A129G belongs 0.
Consider A13U G41A U57C A63G, for which the self-cleavage turned out to be 0.7.
With A18G A55G A117G, the self-cleavage turned out to be 0.2.
For C16U A67G U108C A111U the value was 0; for A18G G53U U102C, 2.11.
In the case of A18C A63G A118G U131C, the self-cleavage was 0.46.
In the case of C16U A18G A56G U72C A94U, the self-cleavage was found to be 0.08.
To A13G U43A U127C belongs 0.97.
As for G15A U43A A64G U102C U122C, the self-cleavage came to 2.63.
As to C16A U108C A110U C112U A114U, the self-cleavage was 0.
For A13G A63U A86G the value was 1.02; for A13G A51G A68G A86U A135G, 0.76.
For A18G U19A U43A A51G, the self-cleavage amounted to 0.95.
As to C16U A59G A89G U132C, the self-cleavage was 1.34.
For G14A A117U U122C, the self-cleavage is 0.73.
To A18G A30G U39C U72A U127C belongs 0.15.
Regarding G15A A23G U43C U97C U131C, the self-cleavage is 1.95.
For A13C A92G A114C the value was 0.1; for G14A A59G A98U, 1.21.
A18G A22G G41A A94U: the self-cleavage stood at 1.52.
Regarding A13U U43C A56G G106A, the self-cleavage came out at 0.03.
For the variant A13U U49C U120C A126U, the self-cleavage turned out to be 0.53.
With G14A C46A C61U A96G, the self-cleavage was 0.76.
For A13U A47U G75A A94G U97C the value was 0.09; for G14A A36U U108C, 0.01; for C17A A24G U39A A54G A90G, 0.71.
For A18G A23G A52G A118G the value was 0.83; for A13G A96U A118G, 1.11; for A18G A22U U100G C121U U132C, 2.8.
For A13U C35U U38A A54G the value was 0.36.
Take A13G A47U C101U U122G: the self-cleavage amounted to 0.45.
To A18G A55G A64G U108A G123A belongs 0; to A13G A67G A116G, 0.19.
For A18C A63G U120A the value was 1.14; for A13G U72A U122C, 0.27.
For A18G A23G A52U U108G the value was 0.11.
Consider A18G G20A A24G A56G A59U U133C, for which the self-cleavage came out at 1.52.
Consider A13G A56G A59U A91G U100C A117U, for which the self-cleavage worked out at 0.
To A13U A64G A66G A91G belongs 1.61; to A13U C16U A89U, 0.65; to A13G A78G A111G G137U, 0.1.
For G15A U39C A86U the value was 2.09; for A13G G21U A59G A68G U108C G136A, 0.05; for C16G A18C A36U U108C, 0.05.
To A13U A51G A110G belongs 0.1; to U12G G14U A22G A66G U122C U131C, 0.84; to A18G A30G U139C, 0.89.
Turning to G14A U49C A78G U100C, the self-cleavage is 0.13.
For A13G A27G G75C A82G A114G the value was 0.12; for A13G U37C A54G A59G A62G A68G A86G A116G G119C, 0.47; for G15A U38C A69G, 1.54.
To G14A A94G U124C belongs 0.6; to G15A A64G U108C U127A A140G, 0.03; to A13G A18G U39C A116G, 0.88.
To G14A A24C U39C A82C A95G belongs 0.08.
On to A18G A67G U103C A114G A129G, for which the self-cleavage was determined as 0.03.
For A13G A51G A68G A117G, the self-cleavage turned out to be 1.36.
To A13G A54U A55G U127A belongs 1.36; to G15C U70C A114U, 0.02.
